In the supplement of paper PMC4604168 (melanoma cell lines):
This is one part of the list. Many values rest on one well or one pass, so single values are uncertain.

Experiments:
Experiment in all cases: cell count relative to DMSO control; melanoma cells; higher = more viable cells
Settings in all cases: library dose: low library concentration; 72 h
MZ2-MEL = tested on: MZ2-MEL
MeWo = tested on: MeWo
RPMI7951 = tested on: RPMI7951
RVH-421 = tested on: RVH-421
SkMel28 = tested on: SkMel28
SkMel2 = tested on: SkMel2
SkMel30 = tested on: SkMel30
UACC62 = tested on: UACC62
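Further: cell number obtained by counting DAPI-stained nuclei in high-throughput microscope images with image analysis software, screen run in 1,536-well plates.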

| SMILES | cell count (MZ2-MEL) [%] | cell count (MeWo) [%] | cell count (RPMI7951) [%] | cell count (RVH-421) [%] | cell count (SkMel28) [%] | cell count (SkMel2) [%] | cell count (SkMel30) [%] | cell count (UACC62) [%] |
| --- | --- | --- | --- | --- | --- | --- | --- | --- |
| O=C(/C=C/c1cccnc1)NCCCCC1CCN(C(=O)c2ccccc2)CC1 + Clc1ccc(Nc2nnc(Cc3ccncc3)c3ccccc23)cc1 [vatalanib] (first compound 0.01 µM, partner dose 2 µM) | 38.6 | 87.7 | 94.2 | 52.9 | 76.2 | 24.1 | 68.5 | 102 |
| CC1(C)CCC(c2ccc(Cl)cc2)=C(CN2CCN(c3ccc(C(=O)NS(=O)(=O)c4ccc(N[C@H](CCN5CCOCC5)CSc5ccccc5)c(S(=O)(=O)C(F)(F)F)c4)cc3)CC2)C1 + CN(c1ncccc1CNc1nc(Nc2ccc3c(c2)CC(=O)N3)ncc1C(F)(F)F)S(C)(=O)=O [PF562271] (first compound 0.4 µM, partner dose 0.08 µM) | 88 | 69.8 | 44.1 | 48 | 87.1 | 78 | 72.3 | 81.2 |
| CC1(C)CCC(c2ccc(Cl)cc2)=C(CN2CCN(c3ccc(C(=O)NS(=O)(=O)c4ccc(N[C@H](CCN5CCOCC5)CSc5ccccc5)c(S(=O)(=O)C(F)(F)F)c4)cc3)CC2)C1 + O=C(O)[C@@H]1[O][Sb](=[O])([O][Sb]2(=[O])[O][C@H]([C@H](O)CO)[C@H](O)[C@H](C(=O)O)[O]2)[O][C@H]([C@H](O)CO)[C@@H]1O [stibogluconate] (first compound 0.4 µM, partner dose 2 µM) | 81.9 | 72.6 | 52.3 | 105 | 105 | 86.2 | 79.9 | 87.9 |
| O=C(/C=C/c1cccnc1)NCCCCC1CCN(C(=O)c2ccccc2)CC1 + Cc1nc(Nc2ncc(C(=O)Nc3c(C)cccc3Cl)s2)cc(N2CCN(CCO)CC2)n1 [dasatanib] (first compound 0.01 µM, partner dose 0.004 µM) | 24.9 | 89.2 | 75.2 | 54.5 | 77.1 | 41.1 | 93.3 | 83.7 |
| Cc1ccc(Nc2nccc(N(C)c3ccc4c(C)n(C)nc4c3)n2)cc1S(N)(=O)=O [Pazopanib] + C[C@@H](N)c1ccc(C(=O)Nc2ccnc3[nH]ccc23)cc1 [RKI983] (first compound 0.4 µM, partner dose 0.4 µM) | 48.4 | 85.8 | 81.3 | 45.2 | 59.9 | 92.6 | 103 | 84.6 |
| CC1(C)CCC(c2ccc(Cl)cc2)=C(CN2CCN(c3ccc(C(=O)NS(=O)(=O)c4ccc(N[C@H](CCN5CCOCC5)CSc5ccccc5)c(S(=O)(=O)C(F)(F)F)c4)cc3)CC2)C1 + CS(=O)(=O)c1ccc(C(=O)Nc2ccc(Cl)c(-c3ccccn3)c2)c(Cl)c1 [vismodegib] (first compound 0.4 µM, partner dose 1 µM) | 83.8 | 59.3 | 55.3 | 84.3 | 123 | 85 | 81.5 | 92.8 |
| CC1(C)CCC(c2ccc(Cl)cc2)=C(CN2CCN(c3ccc(C(=O)NS(=O)(=O)c4ccc(N[C@H](CCN5CCOCC5)CSc5ccccc5)c(S(=O)(=O)C(F)(F)F)c4)cc3)CC2)C1 + CC(=O)O[C@@]12CO[C@@H]1C[C@H](O)[C@@]1(C)C(=O)[C@H](O)C3=C(C)[C@@H](OC(=O)[C@H](O)[C@@H](NC(=O)OC(C)(C)C)c4ccccc4)C[C@@](O)([C@@H](OC(=O)c4ccccc4)[C@H]21)C3(C)C [Docetaxel] (first compound 0.4 µM, partner dose 0.0001 µM) | 38.4 | 40.3 | 16.1 | 27.3 | 27.2 | 50.2 | 15.4 | 37.1 |
| O=C(/C=C/c1cccnc1)NCCCCC1CCN(C(=O)c2ccccc2)CC1 + Cn1c(=O)n(-c2ccc(C(C)(C)C#N)cc2)c2c3cc(-c4cnc5ccccc5c4)ccc3ncc21 [NVP-BEZ235] (first compound 0.01 µM, partner dose 0.004 µM) | 43.9 | 99 | 102 | 49.9 | 65.2 | 42.2 | 84 | 96.2 |
| Cc1ccc(Nc2nccc(N(C)c3ccc4c(C)n(C)nc4c3)n2)cc1S(N)(=O)=O [Pazopanib] + CN(c1ncccc1CNc1nc(Nc2ccc3c(c2)CC(=O)N3)ncc1C(F)(F)F)S(C)(=O)=O [PF562271] (first compound 0.4 µM, partner dose 0.08 µM) | 64.4 | 109 | 54.9 | 115 | 90.3 | 101 | 93.3 | 96 |
| O=C(/C=C/c1cccnc1)NCCCCC1CCN(C(=O)c2ccccc2)CC1 + CS(=O)(=O)CCNCc1ccc(-c2ccc3ncnc(Nc4ccc(OCc5cccc(F)c5)c(Cl)c4)c3c2)o1 [lapatinib] (first compound 0.01 µM, partner dose 0.8 µM) | 39.2 | 85.1 | 101 | 51.8 | 89.3 | 23.6 | 103 | 76.3 |
| O=C(/C=C/c1cccnc1)NCCCCC1CCN(C(=O)c2ccccc2)CC1 + O=C(O)c1ccc2c(c1)nc(Nc1cccc(Cl)c1)c1ccncc12 [CX4945] (first compound 0.01 µM, partner dose 0.4 µM) | 44 | 94.6 | 99.6 | 52.5 | 90 | 30.7 | 97.2 | 105 |
| Cc1ccc(Nc2nccc(N(C)c3ccc4c(C)n(C)nc4c3)n2)cc1S(N)(=O)=O [Pazopanib] + Cn1cnc2c(F)c(Nc3ccc(Br)cc3Cl)c(C(=O)NOCCO)cc21 [selumetinib] (first compound 0.4 µM, partner dose 0.015 µM) | 105 | 94.9 | 86.4 | 87.2 | 93.5 | 98.1 | 114 | 85.9 |
| Cc1ccc(Nc2nccc(N(C)c3ccc4c(C)n(C)nc4c3)n2)cc1S(N)(=O)=O [Pazopanib] + O=C(O)[C@@H]1[O][Sb](=[O])([O][Sb]2(=[O])[O][C@H]([C@H](O)CO)[C@H](O)[C@H](C(=O)O)[O]2)[O][C@H]([C@H](O)CO)[C@@H]1O [stibogluconate] (first compound 0.4 µM, partner dose 2 µM) | 72.9 | 96.5 | 90.1 | 85.9 | 94.7 | 91.6 | 77.4 | 103 |
| CC1(C)CCC(c2ccc(Cl)cc2)=C(CN2CCN(c3ccc(C(=O)NS(=O)(=O)c4ccc(N[C@H](CCN5CCOCC5)CSc5ccccc5)c(S(=O)(=O)C(F)(F)F)c4)cc3)CC2)C1 + CC(C)C[C@H](NC(=O)[C@H](Cc1ccccc1)NC(=O)c1cnccn1)B(O)O [Bortezomib] (first compound 0.4 µM, partner dose 0.001 µM) | 83 | 59.7 | 49.1 | 41.2 | 88.5 | 87.4 | 36.7 | 88.2 |
| CC1(C)CCC(c2ccc(Cl)cc2)=C(CN2CCN(c3ccc(C(=O)NS(=O)(=O)c4ccc(N[C@H](CCN5CCOCC5)CSc5ccccc5)c(S(=O)(=O)C(F)(F)F)c4)cc3)CC2)C1 + C#Cc1cccc(Nc2ncnc3cc(OCCOC)c(OCCOC)cc23)c1 [erlotinib] (first compound 0.4 µM, partner dose 0.8 µM) | 88.5 | 66.1 | 61.1 | 78.8 | 96 | 93.4 | 64.5 | 94 |
| Cc1ccc(Nc2nccc(N(C)c3ccc4c(C)n(C)nc4c3)n2)cc1S(N)(=O)=O [Pazopanib] + C=CCNC1=C2C[C@@H](C)C[C@H](OC)[C@H](O)[C@@H](C)/C=C(\C)[C@H](OC(N)=O)[C@@H](OC)/C=C\C=C(/C)C(=O)NC(=CC1=O)C2=O [Tanespimycin] (first compound 0.4 µM, partner dose 0.002 µM) | 82.4 | 103 | 71 | 94.4 | 91.4 | 96.7 | 78.2 | 82.9 |
| O=C(/C=C/c1cccnc1)NCCCCC1CCN(C(=O)c2ccccc2)CC1 + Nc1ncn([C@H]2C[C@H](O)[C@@H](CO)O2)c(=O)n1 [decitabine] (first compound 0.01 µM, partner dose 0.1 µM) | 35.6 | 105 | 88.2 | 65.3 | 92.3 | 38.9 | 117 | 79.2 |
| CC1(C)CCC(c2ccc(Cl)cc2)=C(CN2CCN(c3ccc(C(=O)NS(=O)(=O)c4ccc(N[C@H](CCN5CCOCC5)CSc5ccccc5)c(S(=O)(=O)C(F)(F)F)c4)cc3)CC2)C1 + OCc1c[nH]c2ccccc12 [Indole-3-carbinol] (first compound 0.4 µM, partner dose 0.8 µM) | 97.6 | 81.8 | 73.2 | 72.1 | 83.9 | 95.1 | 92.2 | 96 |
| Cc1ccc(Nc2nccc(N(C)c3ccc4c(C)n(C)nc4c3)n2)cc1S(N)(=O)=O [Pazopanib] + C#Cc1cccc(Nc2ncnc3cc(OCCOC)c(OCCOC)cc23)c1 [erlotinib] (first compound 0.4 µM, partner dose 0.8 µM) | 70.3 | 95.4 | 64.1 | 98.2 | 98.6 | 93.1 | 68.2 | 92.7 |
